The source of these data is publication PMC6451091.

What all share (conditions): 20 mM HEPES pH 7.9, 100 mM NaCl, 1 mM DTT, 0.2 mg/mL BSA, 0.02% Triton X-100, 2% milk, 0.4 mg/mL salmon testes DNA; 1 h; temperature not stated; high values mean tight binding; double strand, one strand shown; sequences stand for … in GCCTAGCAC…GTGCTAGGTCTTGATTCGCTTGACGCTGCTG
For test [1], the target named is PU.1 (IVT) (UniProt P17947). The test is described as follows: protein-binding microarray (PBM).
Test [2] addresses PU.1 (endogenous, THP-1 nuclear extract) (UniProt P17947). Kind of test: nuclear extract protein-binding microarray (nextPBM).
The target in test [3] is T1, FLI1 (endogenous, THP-1 nuclear extract) (UniProt Q01543).
T1 sequence: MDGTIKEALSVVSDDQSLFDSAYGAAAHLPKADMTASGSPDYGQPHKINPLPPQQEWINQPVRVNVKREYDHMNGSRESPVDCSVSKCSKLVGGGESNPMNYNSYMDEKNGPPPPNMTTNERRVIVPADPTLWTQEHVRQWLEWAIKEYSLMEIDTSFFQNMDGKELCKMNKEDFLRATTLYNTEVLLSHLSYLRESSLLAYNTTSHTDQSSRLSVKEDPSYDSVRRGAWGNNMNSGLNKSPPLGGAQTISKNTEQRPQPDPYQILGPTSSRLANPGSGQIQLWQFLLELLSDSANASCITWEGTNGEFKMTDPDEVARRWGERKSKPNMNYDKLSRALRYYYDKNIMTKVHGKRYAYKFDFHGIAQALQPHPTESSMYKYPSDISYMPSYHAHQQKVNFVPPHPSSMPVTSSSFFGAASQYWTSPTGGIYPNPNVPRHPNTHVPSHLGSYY
The description is as above.

The other results are listed elsewhere or left out. For part of these data: At the low end of the ranking, values are background and their order means little. For part of these data: The protein was read in a cell extract, so binding may be indirect.

As for AAAAAGGGGAAGTGGGTACC, the binding signal in test [1] is 7.97 z-score; in test [2], 7.32 z-score; in test [3], 3.63 z-score.
With GGGAGAAGGAAGTGGGAGCC, the binding signal in test [1] worked out at 2.71 z-score; in test [2] it was 2.63 z-score; in test [3], 1.95 z-score.
The corresponding values for AAAATGGGGAAGTGGGGCAT are 6.98 z-score, 7.23 z-score and 2.55 z-score.
Turning to TGCCGGAGGAAGTGGCATGC, the values for the binding signal in test [1], in test [2] and in test [3] were 2.27 z-score, 2.63 z-score and 2.03 z-score, respectively.
For TGAAAGAGCAAGTGCAACCA, the values for the binding signal in test [1], in test [2] and in test [3] were -0.271 z-score, -0.442 z-score and -0.628 z-score, respectively.
TAAAAGAGGAAGTGAAGAAA: the binding signal was found to be 8.27 z-score in test [1], 7.3 z-score in test [2] and 4.76 z-score in test [3].
The like results for CAAATAAGGAAGTGACAACA were, in that order, 5.99 z-score, 6.65 z-score and 2.75 z-score.
For the sequence ACAACAAGGAACTGTGCCCC, the binding signal in test [1] amounted to 1.7 z-score; in test [2], 1.18 z-score; in test [3] it was 0.122 z-score.
The corresponding values for GGAAGGCAGAAGTACTGTGA are 1.51 z-score, 1.69 z-score and 0.346 z-score.
On to GGAAAGAGGAAGTGAGTGGG, for which the results for the binding signal in test [1], in test [2] and in test [3] were 8.08 z-score, 7.41 z-score and 4.19 z-score, respectively.
The like results for GGAAAGAGGAAGTGTATGGT were, in that order, 8.05 z-score, 7.28 z-score and 3.68 z-score.
In the case of AGAAAGAGGAAATGTGTTTG, the figures for the binding signal in test [1], in test [2] and in test [3] were 4.86 z-score, 4.94 z-score and 2.49 z-score, respectively.
GTTTTGAGGAAGTGGAGGTG: the binding signal worked out at 6.11 z-score in test [1], 6.44 z-score in test [2] and 2.64 z-score in test [3].
Turning to AAAAAGGGGAAGTGTGCTGC, the binding signal worked out at 8.33 z-score in test [1], 7.53 z-score in test [2] and 3.55 z-score in test [3].
The like results for CTTGGGAGGAAGTGTGGAGC were, in that order, 2.65 z-score, 2.62 z-score and 2.22 z-score.
The corresponding values for ACAAAAAGGAACTGAGCCCC are 1.98 z-score, 2.16 z-score and 0.761 z-score.
On to AAAAAAAGGAAGTCAGTGTT, for which the binding signal in test [1] amounted to 6.32 z-score; in test [2], 6.14 z-score; in test [3] it was 2.72 z-score.
Consider GGAGGGAGGAAGTGGCAGAG, for which the binding signal came to 3.9 z-score in test [1], 3.29 z-score in test [2] and 2.61 z-score in test [3].
Take GAAGAGAGGAAGTCAAATTG: the figures for the binding signal in test [1], in test [2] and in test [3] were 4.29 z-score, 4.11 z-score and 2.61 z-score, respectively.
The like results for CAGAAAAGGAACTGGGTATG were, in that order, 1.98 z-score, 1.58 z-score and 0.972 z-score.
The corresponding values for ATGGAGAGGAAGTGTGCTGG are 3.66 z-score, 3.34 z-score and 2.85 z-score.
The like results for CGAAAGGGGACGTGCTAAAC were, in that order, 0.374 z-score, 0.362 z-score and -0.365 z-score.
On to TGAAAGAGGAAGTGCCCAGG, for which the binding signal in test [1] amounted to 7.44 z-score; in test [2] it was 7.37 z-score; in test [3] it was 3.8 z-score.
The corresponding values for TCAAAAAGGAAGTCGCTGAC are 2.98 z-score, 2.97 z-score and 2.27 z-score.
As to AGGAAGAGGAAGTGGGGGCT, the figures for the binding signal in test [1], in test [2] and in test [3] were 6.08 z-score, 6.31 z-score and 3.64 z-score, respectively.
Regarding CAAAAAGGGAAGTGGATACT, the binding signal is 6.35 z-score in test [1], 6.85 z-score in test [2] and 2.77 z-score in test [3].
GGAAACAGGAACTGTTAAAA: the binding signal in test [1] is 4.99 z-score; in test [2] it was 5.14 z-score; in test [3] it was 2.83 z-score.
Regarding TGAAAGGGGAAGTGGGCTCA, the binding signal worked out at 6.18 z-score in test [1], 6.88 z-score in test [2] and 3.28 z-score in test [3].
The like results for GAAATGAGGAACTGGCTGGA were, in that order, 6.23 z-score, 6.56 z-score and 1.98 z-score.
Take TGAAAGAGGAAGTGCCACCA: the binding signal in test [1] was determined as 7.48 z-score; in test [2] it was 7.08 z-score; in test [3], 4 z-score.
As to CAAAAGAGGAACTCATTTTT, the binding signal in test [1] stood at 6.82 z-score; in test [2], 6.94 z-score; in test [3], 2.67 z-score.
AAATAGAGGAAGTGGTTTAT: the results for the binding signal in test [1], in test [2] and in test [3] were 7.55 z-score, 7.1 z-score and 3.85 z-score, respectively.
The like results for CCAGGGAGGAAGTGCAGTCC were, in that order, 3.41 z-score, 3.38 z-score and 2.85 z-score.
The like results for AGGAACAGGAAGTGAATATA were, in that order, 5.87 z-score, 6.09 z-score and 5.1 z-score.
The corresponding values for GGAAACAGGAAGTGAGGGGC are 6.89 z-score, 6.85 z-score and 5.2 z-score.
In the case of GAAGACAGGAAGTAGCCTTT, the figures for the binding signal in test [1], in test [2] and in test [3] were 3.85 z-score, 3.65 z-score and 4.61 z-score, respectively.
The corresponding values for CAGAAAAGGAAGTGTGGTGC are 3.29 z-score, 2.96 z-score and 2.34 z-score.
Take CGAAAGGCGAAGTGCTAAAC: the figures for the binding signal in test [1], in test [2] and in test [3] were 0.568 z-score, 0.695 z-score and 0.0901 z-score, respectively.
The like results for AAGAACAGGAAGTGCAAGTT were, in that order, 5.57 z-score, 6.26 z-score and 4.94 z-score.
The like results for TGAAAGACGAAGTGCAACCA were, in that order, 0.212 z-score, 0.557 z-score and -0.0203 z-score.
TAGAACAGGAAGTGTTGAAA: the binding signal turned out to be 5.2 z-score in test [1], 5.03 z-score in test [2] and 5.01 z-score in test [3].
With AATAAGAGGAACTGGCGCAT, the binding signal came out at 4.36 z-score in test [1], 5.04 z-score in test [2] and 1.27 z-score in test [3].
As to CAAAAAGGGAAGTGGCTGCT, the binding signal in test [1] was 6.29 z-score; in test [2], 6.58 z-score; in test [3] it was 2.94 z-score.
Regarding GCAAAAAGGAACTGTGCCCC, the binding signal in test [1] worked out at 1.53 z-score; in test [2], 1.38 z-score; in test [3], 0.733 z-score.
In the case of AAAGAGAGGAAGTACAGTTT, the binding signal in test [1] was found to be 5.35 z-score; in test [2], 5.23 z-score; in test [3], 2.88 z-score.
Turning to AAAAAAAGGAACTGGATAGA, the figures for the binding signal in test [1], in test [2] and in test [3] were 4.08 z-score, 4 z-score and 1.42 z-score, respectively.
The corresponding values for CGATAGGGGAAGTGCTAAAC are 5.08 z-score, 5.38 z-score and 2.16 z-score.
As to GAAAAGAGGAAGTCTGAAAA, the binding signal in test [1] turned out to be 7.48 z-score; in test [2], 7.31 z-score; in test [3] it was 3.49 z-score.
In the case of CCAAGGGGGAAGTGGGAGGA, the binding signal was 3.4 z-score in test [1], 4.26 z-score in test [2] and 2.02 z-score in test [3].
The like results for TTTAAAGGGAAATACTGTGG were, in that order, 1.36 z-score, 0.905 z-score and 1.05 z-score.
For the sequence AAAAAAAGGAATTGGCTAGA, the binding signal in test [1] amounted to 1.77 z-score; in test [2], 1.22 z-score; in test [3], 0.432 z-score.
Take TGGAAGAGGAAGTGAGAGAG: the binding signal in test [1] was 5.56 z-score; in test [2], 6.37 z-score; in test [3], 3.25 z-score.
The like results for AGATAGCGGAAGTGTTGAGC were, in that order, 5.84 z-score, 6.16 z-score and 4.32 z-score.
The corresponding values for AAGAAGAGGAAGTCATAGGG are 5.85 z-score, 6.47 z-score and 3.14 z-score.
Take GAAAAGAGGAAGTTGGGGAA: the binding signal in test [1] was determined as 8.94 z-score; in test [2] it was 7.4 z-score; in test [3] it was 5.17 z-score.
The like results for GAAATGAGGAACTGCTCCTA were, in that order, 6.58 z-score, 6.69 z-score and 2 z-score.
The like results for AAAAGGAGGAAGTGGTTACA were, in that order, 6.37 z-score, 6.77 z-score and 3.21 z-score.
The like results for GCAATGGGGAAGTGGTTTGC were, in that order, 5.83 z-score, 6.32 z-score and 2.49 z-score.
As to GATAAGAGGAAGTCCTCAGT, the binding signal in test [1] amounted to 6.34 z-score; in test [2], 6.34 z-score; in test [3] it was 2.95 z-score.
As to GGAAGGAGGAAGTGAGGGGC, the binding signal in test [1] was found to be 5.54 z-score; in test [2], 6.11 z-score; in test [3], 2.99 z-score.
